# According to the supplement of paper PMC8728848:
# The list shows a part of the results.
# Legend:
# Assay in all cases: glycan array binding signal (z-score within array); higher = stronger binding
# Details in all cases: glycan notation: IUPAC condensed, linker removed
# [1] = biological target: Man(a1-2)Man(a1-2)Man(a1-3)Man
# Procedure, shortened: (§1)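 Glycan array binding is given as a within-array Z-score, which can be read as non-binding when negative. The arrays, 3228 of them, came from the Consortium for Functional Glycomics database and were retained only where the protein sequence was available. Z-scores were averaged across arrays of the same protein sequence at different concentrations or buffers and across linkers.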
# [2] = biological target: Man(a1-2)Man(a1-2)Man(a1-6)[Man(a1-3)]Man
# Procedure, shortened: as §1
# Man(a1-2)Man(a1-3)Man = biological target: Man(a1-2)Man(a1-3)Man
# Procedure, shortened: as §1
# [3] = biological target: Man(a1-2)Man(a1-3)[Man(a1-2)Man(a1-6)]Man
# Procedure, shortened: as §1
# [4] = biological target: Man(a1-2)Man(a1-3)[Man(a1-2)Man(a1-6)]Man(a1-6)[Man(a1-2)Man(a1-2)Man(a1-3)]Man(b1-4)GlcNAc(b1-4)GlcNAc
# Procedure, shortened: as §1
# [5] = biological target: Man(a1-2)Man(a1-3)[Man(a1-6)]Man(a1-6)[Man(a1-2)Man(a1-3)]Man(b1-4)GlcNAc(b1-4)GlcNAc
# Procedure, shortened: as §1
# [6] = biological target: Man(a1-2)Man(a1-6)[Man(a1-3)]Man(a1-6)[Man(a1-2)Man(a1-2)Man(a1-3)]Man(b1-4)GlcNAc(b1-4)GlcNAc
# Procedure, shortened: as §1
# Man(a1-3)[Man(a1-6)]Man = biological target: Man(a1-3)[Man(a1-6)]Man
# Procedure, shortened: as §1
# [7] = biological target: Man(a1-3)[Man(a1-6)]Man(a1-6)[Man(a1-2)Man(a1-3)]Man(b1-4)GlcNAc(b1-4)GlcNAc
# Procedure, shortened: as §1
# [8] = biological target: Man(a1-3)[Man(a1-6)]Man(a1-6)[Man(a1-3)]Man(b1-4)GlcNAc(b1-4)GlcNAc
# Procedure, shortened: as §1
# [9] = biological target: Man(a1-3)[Man(a1-6)]Man(b1-4)GlcNAc(b1-4)GlcNAc
# Procedure, shortened: as §1
# Man(b1-4)GlcNAc = biological target: Man(b1-4)GlcNAc
# Procedure, shortened: as §1
# Neu5Ac(a2-3)Gal = biological target: Neu5Ac(a2-3)Gal
# Procedure, shortened: as §1
# [10] = biological target: Neu5Ac(a2-3)Gal(b1-3)GalNAc
# Procedure, shortened: as §1
# [11] = biological target: Neu5Ac(a2-3)Gal(b1-3)GalNAc(b1-3)Gal(a1-4)Gal(b1-4)Glc
# Procedure, shortened: as §1
# [12] = biological target: Neu5Ac(a2-3)Gal(b1-3)GalNAc(b1-3)Gal(b1-4)GlcNAc
# Procedure, shortened: as §1
# [13] = biological target: Neu5Ac(a2-3)Gal(b1-3)GalNAc(b1-4)[Neu5Ac(a2-3)]Gal(b1-4)Glc
# Procedure, shortened: as §1
# [14] = biological target: Neu5Ac(a2-3)Gal(b1-3)GalNAc6S
# Procedure, shortened: as §1
# [15] = biological target: Neu5Ac(a2-3)Gal(b1-3)GlcNAc
# Procedure, shortened: as §1
# [16] = biological target: Neu5Ac(a2-3)Gal(b1-3)GlcNAc6S
# Procedure, shortened: as §1
# [17] = biological target: Neu5Ac(a2-3)Gal(b1-3)[Fuc(a1-4)]GlcNAc
# Procedure, shortened: as §1
# [18] = biological target: Neu5Ac(a2-3)Gal(b1-3)[Fuc(a1-4)]GlcNAc(b1-3)Gal(b1-4)[Fuc(a1-3)]GlcNAc
# Procedure, shortened: as §1
# [19] = biological target: Neu5Ac(a2-3)Gal(b1-3)[Neu5Ac(a2-3)Gal(b1-4)]GlcNAc
# Procedure, shortened: as §1
# [20] = biological target: Neu5Ac(a2-3)Gal(b1-3)[Neu5Ac(a2-6)]GalNAc
# Procedure, shortened: as §1
# Neu5Ac(a2-3)Gal(b1-4)Glc = biological target: Neu5Ac(a2-3)Gal(b1-4)Glc
# Procedure, shortened: as §1
# [21] = biological target: Neu5Ac(a2-3)Gal(b1-4)GlcNAc
# Procedure, shortened: as §1
# [22] = biological target: Neu5Ac(a2-3)Gal(b1-4)GlcNAc(b1-2)Man(a1-3)[Neu5Ac(a2-3)Gal(b1-4)GlcNAc(b1-2)Man(a1-6)]Man(b1-4)GlcNAc(b1-4)GlcNAc
# Procedure, shortened: as §1
# [23] = biological target: Neu5Ac(a2-3)Gal(b1-4)GlcNAc(b1-3)Gal(b1-4)GlcNAc
# Procedure, shortened: as §1
# [24] = biological target: Neu5Ac(a2-3)Gal(b1-4)GlcNAc(b1-3)Gal(b1-4)GlcNAc(b1-3)Gal(b1-4)GlcNAc
# Procedure, shortened: as §1
# [25] = biological target: Neu5Ac(a2-3)Gal(b1-4)GlcNAc(b1-3)Gal(b1-4)[Fuc(a1-3)]GlcNAc
# Procedure, shortened: as §1
# [26] = biological target: Neu5Ac(a2-3)Gal(b1-4)GlcNAc6S
# Procedure, shortened: as §1
# [27] = biological target: Neu5Ac(a2-3)Gal(b1-4)[Fuc(a1-3)]GlcNAc
# Procedure, shortened: as §1
# [28] = biological target: Neu5Ac(a2-3)Gal(b1-4)[Fuc(a1-3)]GlcNAc(b1-3)Gal
# Procedure, shortened: as §1
# [29] = biological target: Neu5Ac(a2-3)Gal(b1-4)[Fuc(a1-3)]GlcNAc(b1-3)Gal(b1-4)GlcNAc
# Procedure, shortened: as §1
binder,measurement,setting,value
"RSVL (Crotalus atrox), P21963 (protein) NNCPLDWLPMNGLCYKIFNQLKTWEDAEMFCRKYKPGCHLASFHRYGESLEIAEYISDYHKGQENVWIGLRDKKKDFSWEWTDRSCTDYLTWDKNQPDHYQNKEFCVELVSLTGYRLWNDQVCESKDAFLCQCKF",glycan array binding signal (z-score),[1],-0.367
same,glycan array binding signal (z-score),[2],-0.366
same,glycan array binding signal (z-score),Man(a1-2)Man(a1-3)Man,-0.369
same,glycan array binding signal (z-score),[3],-0.367
same,glycan array binding signal (z-score),[4],-0.358
same,glycan array binding signal (z-score),[5],-0.365
same,glycan array binding signal (z-score),[6],-0.366
same,glycan array binding signal (z-score),Man(a1-3)[Man(a1-6)]Man,-0.359
same,glycan array binding signal (z-score),[7],-0.367
same,glycan array binding signal (z-score),[8],-0.367
same,glycan array binding signal (z-score),[9],-0.363
same,glycan array binding signal (z-score),Man(b1-4)GlcNAc,-0.365
same,glycan array binding signal (z-score),Neu5Ac(a2-3)Gal,-0.126
same,glycan array binding signal (z-score),[10],-0.37
same,glycan array binding signal (z-score),[11],-0.368
same,glycan array binding signal (z-score),[12],-0.35
same,glycan array binding signal (z-score),[13],-0.237
same,glycan array binding signal (z-score),[14],-0.363
same,glycan array binding signal (z-score),[15],-0.362
same,glycan array binding signal (z-score),[16],-0.367
same,glycan array binding signal (z-score),[17],-0.349
same,glycan array binding signal (z-score),[18],-0.361
same,glycan array binding signal (z-score),[19],-0.368
same,glycan array binding signal (z-score),[20],-0.363
same,glycan array binding signal (z-score),Neu5Ac(a2-3)Gal(b1-4)Glc,-0.367
same,glycan array binding signal (z-score),[21],-0.349
same,glycan array binding signal (z-score),[22],-0.362
same,glycan array binding signal (z-score),[23],-0.365
same,glycan array binding signal (z-score),[24],-0.325
same,glycan array binding signal (z-score),[25],-0.367
same,glycan array binding signal (z-score),[26],-0.366
same,glycan array binding signal (z-score),[27],-0.337
same,glycan array binding signal (z-score),[28],-0.348
same,glycan array binding signal (z-score),[29],-0.365
